# Measurements taken from PubChem BioAssay AID588855 (National Center for Advancing Translational Sciences (NCATS), 2011).
# Out of some 410,000 compounds screened, about 5,000 (1.2%) were called active. Inconclusive results, whose numbers are uncertain, are shown with a selection of clear calls. Calls follow the shape of the dose curve; as a rule, active = well fitted inhibition curve with a large enough effect; inconclusive = small, poorly fitted or top-dose-only effect; inactive = no such curve, though single readings can be large or run the other way. Potencies of inconclusive entries are doubtful fits and often do not repeat.
# Assay: qHTS for Inhibitors of TGF-b; also: nearly all actives have a fitted effect of over 65% in size
# Conditions: HepG2 CAGA-GFP TGF-b/SMAD3 reporter, GFP fluorescence, 18 h, TGF-beta stimulated, 500 pg/mL final; series mostly up to 46.1 µM
# Outline: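 GFP signal (ex488/em500-530) from TGF-beta-stimulated HEPG2 CAGA-GFP cells, 500 pg/mL final, 18 h at 37 degrees C in DMEM plus 1% FBS, normalized to unstimulated and DMSO-stimulated controls.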
# Potency is read from the fitted curve at half-maximal effect; tags tell the direction and shape of the fitted curve.
row,SMILES,Potency
1,Clc1nc(Nc2ccc(N3CCOCC3)cc2)c2ccccc2n1,inactive
2,O=S(=O)(c1ccc2nc(COc3ccc(Cl)cc3Cl)[nH]c2c1)N1CCOCC1,"inconclusive: 20 µM [inhibitor, single point]"
3,CC(NC(=O)c1cc(COc2c(F)cccc2F)on1)c1cnn(-c2ccccc2)c1 (centres undefined),"inconclusive: 0.224 µM [inhibitor, full curve, poor fit]"
4,Cc1c(N2C(=O)/C(=C\c3ccccc3O)SC2=S)c(=O)n(-c2ccccc2)n1C,"inconclusive: 14.1 µM [inhibitor, partial curve, poor fit]"
5,CCN1CCN(C(=O)c2ccc3c(c2)N(Cc2cccc(F)c2)C(=O)c2ccccc2S3)CC1,"inconclusive: 22.4 µM [inhibitor, single point]"
6,Fc1ccc(Cn2nnnc2C(c2cccs2)N2CCCCCC2)cc1 (centres undefined),"inconclusive: 35.5 µM [inhibitor, single point]"
7,COc1ccc2nc(NC(=S)N(C)C)sc2c1,"inconclusive: 35.5 µM [inhibitor, partial curve, poor fit]"
8,COc1cccc(C(O)c2nc(-c3ccc(F)c(Cl)c3)cs2)c1 (centres undefined),"inconclusive: 35.5 µM [inhibitor, single point]"
9,O=C(CCn1c(=O)c2cccn2c2cccnc21)N1CCN(c2cccc(Cl)c2)CC1,"inconclusive: 35.5 µM [inhibitor, single point]"
10,CCc1ccc(OCC(=O)N(Cc2ccc(OC)cc2)C2CCS(=O)(=O)C2)cc1 (centres undefined),"inconclusive: 6.31 µM [inhibitor, single point]"
11,Cc1cccc(-c2nc(SCC(=O)Nc3ccc4c(c3)OCO4)c(-c3ccccc3)[nH]2)c1,active: 12.6 µM
12,COc1cccc(CN(C)CC(=O)Nc2cc(S(=O)(=O)N3CCCC3)ccc2Cl)c1OC,"inconclusive: 12.6 µM [inhibitor, single point]"
13,CC(C)Cc1nnc(NC(=O)c2ccc(S(=O)(=O)N3CCCC3)cc2)s1,inactive
14,COC(=O)c1c(-c2cc(OC)cc(OC)c2)sc2ccc(OC)cc12,inactive
15,CS(=O)(=O)N(CC(=O)N1CCCCCC1)Cc1ccc(Cl)cc1,inactive
16,CC(C)(C)OC(=O)C[C@H]1C/C=C\C[C@@H](CC(=O)N(CCO)Cc2ccccc2)C(=O)N[C@H](Cc2ccccc2)COC1=O,"inconclusive: 35.5 µM [inhibitor, single point]"
17,O=C1C=C(Nc2ccccc2)C(=O)c2ccccc21,active: 3.98 µM
18,Cc1cc(NC(=O)COC(=O)c2ccc(OC(F)(F)F)cc2)no1,inactive
19,CN(C(=O)COC(=O)c1ccc(C(C)(C)C)cc1)C1CCS(=O)(=O)C1 (centres undefined),"inconclusive: 0.501 µM [inhibitor, full curve, poor fit]"
20,Cc1cc(O)c(C(C)C)cc1C1(c2cc(C(C)C)c(O)cc2C)OC(=O)c2ccccc21,active: 12.6 µM
21,CCCn1c(=O)c2sccc2n2c(CCCC(=O)Nc3cccc(CC)c3)nnc12,"inconclusive: 12.6 µM [inhibitor, partial curve, poor fit]"
22,COCCCNC(=O)CSc1nc(-c2ccccc2)[nH]c1-c1ccc(C)cc1,"inconclusive: 35.5 µM [inhibitor, single point]"

row,SMILES,Potency
1,O=C(NCCc1cccc(C(F)(F)F)c1)C1CCC(=O)N(CCc2cccc(F)c2)C1 (centres undefined),"inconclusive: 22.4 µM [inhibitor, partial curve, poor fit]"
2,CC(C)NC(=O)N(C)C[C@H]1Oc2c(NC(=O)Nc3ccc(C(F)(F)F)cc3)cccc2C(=O)N([C@H](C)CO)C[C@@H]1C,"inconclusive: 3.55 µM [inhibitor, full curve]"
3,Cc1c(O)cc2c(c1O)C(=O)CC(c1ccccc1)O2 (centres undefined),"inconclusive: 22.4 µM [inhibitor, partial curve, poor fit]"
4,Cc1cc2ncn(/N=C/c3ccc([N+](=O)[O-])o3)c2cc1C,active: 2.51 µM
5,CCOc1ccc(CNS(=O)(=O)c2cc(-c3cc(C)no3)ccc2C)cc1OC,"inconclusive: 0.0891 µM [inhibitor, full curve, poor fit]"
6,CCCCCCN1C(=O)CC(NC(=O)OCC2c3ccccc3-c3ccccc32)C/C=C\C1C(C)C (centres undefined),"inconclusive: 22.4 µM [inhibitor, single point]"
7,CCOc1ccc(NC(=O)C(C)Oc2ccc(C#N)cc2)cc1S(=O)(=O)N1CCCC1 (centres undefined),"inconclusive: 7.94 µM [inhibitor, partial curve, poor fit]"
8,Cn1c(N2CCN(C(c3ccccc3)c3ccccc3)CC2)nc2ccccc21,"inconclusive: 35.5 µM [inhibitor, single point]"
9,COc1cccc(NC(=S)N(CCc2c(C)[nH]c3ccc(C)cc23)Cc2cccs2)c1,"inconclusive: 28.2 µM [inhibitor, single point]"
10,C[C@@]12CC(=O)NC1N(C(=O)c1cccc(C(F)(F)F)c1)C(c1ccccc1OC(=O)c1cccc(C(F)(F)F)c1)C2 (some centres undefined),active: 12.6 µM
11,COc1ccc(NC(=O)Cn2c(SCc3ccc(C)cc3)nc3cccnc32)c(OC)c1,"inconclusive: 10 µM [inhibitor, partial curve]"
12,COc1cc2ccccc2cc1C(=O)Nc1ccccc1N1CCN(S(C)(=O)=O)CC1,inactive
13,O=c1c2[nH]c3ccccc3c2nc(SCc2cccc(F)c2)n1-c1ccccc1,"inconclusive: 35.5 µM [inhibitor, single point]"
14,COc1ccc(Cl)cc1NC(=O)NCc1ccco1,"inconclusive: 35.5 µM [inhibitor, single point]"
15,N#CC(=C1C=CC(=NO)C(Cl)=C1)c1ccc(Cl)cc1,"inconclusive: 15.8 µM [inhibitor, partial curve, poor fit]"
16,Nc1cc(-c2ccccc2)ccc1O,inactive
17,CCNC(=S)Nc1cc(Cl)ccc1Oc1ccccc1,"inconclusive: 14.1 µM [inhibitor, single point]"
18,CCCCCC(O)c1cccc(OCc2ccc3ccccc3n2)c1 (centres undefined),"inconclusive: 11.2 µM [inhibitor, single point]"
19,O=C(CCn1nnc2ccccc21)Nc1nnc(Cc2ccccc2)s1,inactive
20,COc1ccc(CN(CCC(c2ccccc2)C2CCOC(C)(C)C2)C(C)=O)cc1 (centres undefined),"inconclusive: 22.4 µM [inhibitor, single point]"
21,CC(Nc1c([N+](=O)[O-])c(=O)oc2ccccc12)c1ccccc1 (centres undefined),"inconclusive: 35.5 µM [inhibitor, single point]"
22,CC[C@]12c3[nH]c4cc(-c5ccco5)ccc4c3CCN1C(=O)[C@@H](CC(=O)NCc1cccc(C(F)(F)F)c1)C[C@@H]2C(=O)N1CCN(C(=O)c2ccco2)CC1,active: 11.2 µM

row,SMILES,Potency
1,CC(=O)NC(c1ccccc1)c1nc(-c2ccc3ccccc3c2)cs1 (centres undefined),"inconclusive: 35.5 µM [inhibitor, single point]"
2,Cc1nn(C(C)C(=O)N2CCCCC2)c(=O)c2c1sc1ccccc12 (centres undefined),inactive
3,COc1cccc(-c2coc3c(C)c4oc(=O)c(CCC(=O)O)c(C)c4cc23)c1,"inconclusive: 35.5 µM [inhibitor, single point]"
4,Cc1occc1C(=O)NNC(=S)Nc1cccc([N+](=O)[O-])c1,"inconclusive: 22.4 µM [inhibitor, partial curve, poor fit]"
5,Cn1c(COc2ccc(Br)cc2)nnc1SC1CCc2ccccc2C1=O (centres undefined),"inconclusive: 10 µM [inhibitor, partial curve, poor fit]"
6,COc1ccccc1C=NN=C(N)C(N)=NN=Cc1ccccc1OC,inactive
7,S=c1nccc(-c2ccc3c(c2)CCO3)[nH]1,inactive
8,Cc1ccc(N(C)C(=O)C2CCCN(c3ncnc4c3nc3n4CCCCC3)C2)cc1C (centres undefined),"inconclusive: 35.5 µM [inhibitor, single point]"
9,O=C(CNC(=O)c1ccc(Cl)cc1Cl)OCC(=O)N1CCCC1=O,"inconclusive: 12.6 µM [inhibitor, partial curve, poor fit]"
10,O=C(Nc1nnc([C@H]2C[C@H](O)[C@@H](CO)O2)s1)c1ccc(Oc2ccccc2)cc1,inactive
11,O=C(c1sc2ccccc2c1Cl)N1CCN(CCc2ccccn2)CC1,"inconclusive: 35.5 µM [inhibitor, partial curve, poor fit]"
12,c1ccc(-c2cc(NCCN3CCCCC3)c3ccccc3n2)cc1,"inconclusive: 35.5 µM [inhibitor, single point]"
13,Cc1ccc([N+](=O)[O-])c(OCCN2CCc3ccccc3C2)c1,"inconclusive: 20 µM [inhibitor, single point]"
14,COc1ccc(/C=c2\s/c(=C/C(=O)c3ccc(C)cc3)[nH]c2=O)c(OC)c1,inactive
15,Cc1cccc(N2CCN(C(=O)c3oc4ccc(Br)cc4c3C)CC2)c1C,"inconclusive: 35.5 µM [inhibitor, single point]"
16,O=C(CN1CCN(c2ccc(F)cc2)CC1)NCC1CCCO1 (centres undefined),"inconclusive: 5.62 µM [inhibitor, single point]"
17,CCOc1cc(C(=S)N2CCOCC2)ccc1OS(=O)(=O)c1ccccc1[N+](=O)[O-],"inconclusive: 35.5 µM [inhibitor, single point]"
18,CCN(c1ccc(NC(=O)CCc2nc3sc4c(c3c(=O)[nH]2)CCCC4)cc1)C(C)C,"inconclusive: 35.5 µM [inhibitor, single point]"
19,COc1ccccc1-n1cnc2cc(NCc3ccccc3O)ccc21,"inconclusive: 14.1 µM [inhibitor, single point]"
20,c1ccc2c3c([nH]c2c1)C(C1CCCCC1)N(Cc1ncc[nH]1)CC3 (centres undefined),"inconclusive: 20 µM [inhibitor, single point]"
